{"source": "paper PMC6901573", "about": "(Scientific Reports, 2019)", "target": "Human hemoglobin A, oxidized form (methemoglobin, MetHb) (human, UniProt P69905 1-142; P68871 1-147)", "sequence (P69905 whole entry, chain 1 of 2)": "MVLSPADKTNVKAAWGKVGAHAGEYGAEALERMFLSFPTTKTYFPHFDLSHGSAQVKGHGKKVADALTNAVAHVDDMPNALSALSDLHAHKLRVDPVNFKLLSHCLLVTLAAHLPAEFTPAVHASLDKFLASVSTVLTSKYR", "sequence (P68871 whole entry, chain 2 of 2, further chain)": "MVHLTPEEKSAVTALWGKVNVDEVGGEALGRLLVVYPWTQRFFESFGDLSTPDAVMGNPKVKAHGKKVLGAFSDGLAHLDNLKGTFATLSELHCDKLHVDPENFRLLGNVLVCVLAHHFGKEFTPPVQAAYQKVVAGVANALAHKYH", "test": "stoichiometric titration by UV-Vis absorbance", "conditions": "both partners purified"}
{"binder": "IsdB (NEAT1 and NEAT2 domains connected by the helical linker), wild type (domain or fragment) not shown", "values": [{"measurement": "stoichiometry N", "result": 1, "unit": "IsdB per Hb monomer"}]}
